Assay results reported in publication PMC4305288.
Results are given in words; binding and its absence hold for the method and conditions named. For part of these data: Binding seen in cells or lysates may run through a third protein. Some entries that bind do so weakly or less than the wild type. Sequences can lack the tags named with a protein. One block for each binder: values may come before it.

By UniProt entry, the sequences of proteins in these tests, tags left out.
UniProt Q9ZSD4: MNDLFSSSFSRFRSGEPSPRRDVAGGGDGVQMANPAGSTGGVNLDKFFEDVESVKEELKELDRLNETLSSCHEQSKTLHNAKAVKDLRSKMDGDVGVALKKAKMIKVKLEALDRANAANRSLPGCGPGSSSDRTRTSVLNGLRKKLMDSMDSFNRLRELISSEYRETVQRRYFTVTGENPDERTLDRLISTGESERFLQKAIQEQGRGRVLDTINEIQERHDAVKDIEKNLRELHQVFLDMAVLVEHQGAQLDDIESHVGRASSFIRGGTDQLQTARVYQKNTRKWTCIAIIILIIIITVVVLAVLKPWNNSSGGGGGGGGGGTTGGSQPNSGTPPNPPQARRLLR

How the values were obtained:
[1] = molecular target: T1, EXO70B1-pGBKT7 (Arabidopsis thaliana) (UniProt Q9FGH9); assay: two-hybrid; … GAL4 Two-Hybrid System 3; EXO70B1-pGBKT7 as bait, preys in pGADT7; S. cerevisiae AH109; growth on SD/-Ade/-His/-Leu/-Trp at 28°C
T1 sequence: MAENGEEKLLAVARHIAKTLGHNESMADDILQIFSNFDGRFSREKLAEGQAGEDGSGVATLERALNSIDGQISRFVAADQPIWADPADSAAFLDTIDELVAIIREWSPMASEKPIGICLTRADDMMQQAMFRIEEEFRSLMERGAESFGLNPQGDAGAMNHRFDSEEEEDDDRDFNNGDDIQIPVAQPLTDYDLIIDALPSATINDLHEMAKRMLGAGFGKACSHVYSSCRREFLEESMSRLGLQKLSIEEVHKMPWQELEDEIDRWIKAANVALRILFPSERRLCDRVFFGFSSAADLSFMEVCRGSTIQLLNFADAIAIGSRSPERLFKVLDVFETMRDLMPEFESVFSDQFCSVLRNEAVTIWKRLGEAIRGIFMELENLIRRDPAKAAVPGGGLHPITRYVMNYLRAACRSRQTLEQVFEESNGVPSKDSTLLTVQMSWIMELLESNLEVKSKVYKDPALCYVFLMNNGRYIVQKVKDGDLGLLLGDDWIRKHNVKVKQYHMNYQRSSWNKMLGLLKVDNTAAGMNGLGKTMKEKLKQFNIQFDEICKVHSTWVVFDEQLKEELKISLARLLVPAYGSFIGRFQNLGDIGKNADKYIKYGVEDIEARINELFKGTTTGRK

[2] = molecular target: PEN1-YFP^C (Arabidopsis thaliana) (UniProt Q9ZSD4); assay: split reporter; BiFC with YFP^N and YFP^C fusions co-infiltrated by Agrobacterium GV3101 into N. benthamiana leaves; YFP fluorescence by confocal microscopy after 48 hr
[3] = molecular target: T2, SNAP33-YFP^C (Arabidopsis thaliana) (UniProt Q9S7P9); assay: as above
T2 sequence: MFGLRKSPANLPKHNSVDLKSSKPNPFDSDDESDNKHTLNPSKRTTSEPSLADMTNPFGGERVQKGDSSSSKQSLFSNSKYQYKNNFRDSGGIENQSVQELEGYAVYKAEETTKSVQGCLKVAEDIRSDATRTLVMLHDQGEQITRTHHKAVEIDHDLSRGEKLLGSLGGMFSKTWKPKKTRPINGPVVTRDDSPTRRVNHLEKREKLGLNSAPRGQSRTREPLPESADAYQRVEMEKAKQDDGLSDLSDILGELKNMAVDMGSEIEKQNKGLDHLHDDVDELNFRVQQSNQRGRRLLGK

[4] = molecular target: T3, VAMP721-YFP^C (Arabidopsis thaliana) (UniProt Q9ZTW3); assay: as above
T3 sequence: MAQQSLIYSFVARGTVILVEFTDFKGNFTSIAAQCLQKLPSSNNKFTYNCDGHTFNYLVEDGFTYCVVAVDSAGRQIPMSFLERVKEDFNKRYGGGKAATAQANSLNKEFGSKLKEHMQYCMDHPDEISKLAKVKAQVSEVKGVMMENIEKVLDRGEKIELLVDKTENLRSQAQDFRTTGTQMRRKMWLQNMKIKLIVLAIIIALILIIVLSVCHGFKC

[5] = molecular target: PEN1-HA (Arabidopsis thaliana) (UniProt Q9ZSD4); assay: co-IP; transient co-expression in N. benthamiana leaves; total protein in NB1 buffer; immunoprecipitation with anti-Myc or anti-HA antibody and protein G agarose at 4 °C; washed 4 times with PBS; immunoblot
[6] = molecular target: T4, SNAP33-Myc (Arabidopsis thaliana) (UniProt Q9S7P9); assay: as above
T4 sequence: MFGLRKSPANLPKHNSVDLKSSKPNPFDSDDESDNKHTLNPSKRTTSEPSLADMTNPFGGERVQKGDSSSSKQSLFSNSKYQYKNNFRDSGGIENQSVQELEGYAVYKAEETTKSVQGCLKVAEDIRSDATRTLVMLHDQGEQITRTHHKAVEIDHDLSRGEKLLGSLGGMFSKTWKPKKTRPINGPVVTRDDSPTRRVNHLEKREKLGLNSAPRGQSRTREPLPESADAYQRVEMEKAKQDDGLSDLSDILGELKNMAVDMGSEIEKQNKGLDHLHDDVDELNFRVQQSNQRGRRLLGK

[7] = molecular target: T5, SNAP33-HA (Arabidopsis thaliana) (UniProt Q9S7P9); assay: co-IP; stably transformed Arabidopsis expressing EXO70B1-GFP and SNAP33-HA under native promoters; total protein from 3-week-old plants; immunoprecipitation with anti-HA antibody; immunoblot with GFP antibody
T5 sequence: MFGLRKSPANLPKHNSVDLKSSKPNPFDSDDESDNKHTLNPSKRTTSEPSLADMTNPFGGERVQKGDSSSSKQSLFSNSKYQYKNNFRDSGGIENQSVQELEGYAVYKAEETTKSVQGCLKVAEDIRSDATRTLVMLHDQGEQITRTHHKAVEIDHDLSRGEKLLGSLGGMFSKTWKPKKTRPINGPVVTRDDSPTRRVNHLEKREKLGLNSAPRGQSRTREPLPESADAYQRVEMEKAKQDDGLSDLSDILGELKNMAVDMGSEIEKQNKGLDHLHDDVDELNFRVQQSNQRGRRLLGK

B3: EXO70B1-YFP^N (protein, UniProt Q9FGH9 1-624)
chain: MAENGEEKLLAVARHIAKTLGHNESMADDILQIFSNFDGRFSREKLAEGQAGEDGSGVATLERALNSIDGQISRFVAADQPIWADPADSAAFLDTIDELVAIIREWSPMASEKPIGICLTRADDMMQQAMFRIEEEFRSLMERGAESFGLNPQGDAGAMNHRFDSEEEEDDDRDFNNGDDIQIPVAQPLTDYDLIIDALPSATINDLHEMAKRMLGAGFGKACSHVYSSCRREFLEESMSRLGLQKLSIEEVHKMPWQELEDEIDRWIKAANVALRILFPSERRLCDRVFFGFSSAADLSFMEVCRGSTIQLLNFADAIAIGSRSPERLFKVLDVFETMRDLMPEFESVFSDQFCSVLRNEAVTIWKRLGEAIRGIFMELENLIRRDPAKAAVPGGGLHPITRYVMNYLRAACRSRQTLEQVFEESNGVPSKDSTLLTVQMSWIMELLESNLEVKSKVYKDPALCYVFLMNNGRYIVQKVKDGDLGLLLGDDWIRKHNVKVKQYHMNYQRSSWNKMLGLLKVDNTAAGMNGLGKTMKEKLKQFNIQFDEICKVHSTWVVFDEQLKEELKISLARLLVPAYGSFIGRFQNLGDIGKNADKYIKYGVEDIEARINELFKGTTTGRK
binding [2]: no binding
binding [3]: binds
binding [4]: no binding

B4: EXO70B1-GFP (EXO70B1pro:EXO70B1-GFP, in N. benthamiana) (protein, UniProt Q9FGH9 1-624)
chain: MAENGEEKLLAVARHIAKTLGHNESMADDILQIFSNFDGRFSREKLAEGQAGEDGSGVATLERALNSIDGQISRFVAADQPIWADPADSAAFLDTIDELVAIIREWSPMASEKPIGICLTRADDMMQQAMFRIEEEFRSLMERGAESFGLNPQGDAGAMNHRFDSEEEEDDDRDFNNGDDIQIPVAQPLTDYDLIIDALPSATINDLHEMAKRMLGAGFGKACSHVYSSCRREFLEESMSRLGLQKLSIEEVHKMPWQELEDEIDRWIKAANVALRILFPSERRLCDRVFFGFSSAADLSFMEVCRGSTIQLLNFADAIAIGSRSPERLFKVLDVFETMRDLMPEFESVFSDQFCSVLRNEAVTIWKRLGEAIRGIFMELENLIRRDPAKAAVPGGGLHPITRYVMNYLRAACRSRQTLEQVFEESNGVPSKDSTLLTVQMSWIMELLESNLEVKSKVYKDPALCYVFLMNNGRYIVQKVKDGDLGLLLGDDWIRKHNVKVKQYHMNYQRSSWNKMLGLLKVDNTAAGMNGLGKTMKEKLKQFNIQFDEICKVHSTWVVFDEQLKEELKISLARLLVPAYGSFIGRFQNLGDIGKNADKYIKYGVEDIEARINELFKGTTTGRK
binding [5]: no binding
binding [6]: binds

B5: EXO70B1-GFP (EXO70B1pro:EXO70B1-GFP, in transgenic Arabidopsis) (protein, UniProt Q9FGH9 1-624)
chain: MAENGEEKLLAVARHIAKTLGHNESMADDILQIFSNFDGRFSREKLAEGQAGEDGSGVATLERALNSIDGQISRFVAADQPIWADPADSAAFLDTIDELVAIIREWSPMASEKPIGICLTRADDMMQQAMFRIEEEFRSLMERGAESFGLNPQGDAGAMNHRFDSEEEEDDDRDFNNGDDIQIPVAQPLTDYDLIIDALPSATINDLHEMAKRMLGAGFGKACSHVYSSCRREFLEESMSRLGLQKLSIEEVHKMPWQELEDEIDRWIKAANVALRILFPSERRLCDRVFFGFSSAADLSFMEVCRGSTIQLLNFADAIAIGSRSPERLFKVLDVFETMRDLMPEFESVFSDQFCSVLRNEAVTIWKRLGEAIRGIFMELENLIRRDPAKAAVPGGGLHPITRYVMNYLRAACRSRQTLEQVFEESNGVPSKDSTLLTVQMSWIMELLESNLEVKSKVYKDPALCYVFLMNNGRYIVQKVKDGDLGLLLGDDWIRKHNVKVKQYHMNYQRSSWNKMLGLLKVDNTAAGMNGLGKTMKEKLKQFNIQFDEICKVHSTWVVFDEQLKEELKISLARLLVPAYGSFIGRFQNLGDIGKNADKYIKYGVEDIEARINELFKGTTTGRK
binding [7]: binds

The next lines start with the values.

binding [1]: binds
B1: SEC15b fused with pGADT7 (protein, UniProt F4JHH5 1-787)
chain: MQSSKGRRKVGSTTAGAGIDSAEKLDELLISSAICNGEDLGPFVRKTFGTGKPETLLHHLKFFARSKESEIEEVCKAHYQDFIHAVDDLKSLLSDVESLKSALSDSNSKLQSVAAPLLSSLDSLVEAQTVSKNVDLAIGAVTHCVRVMELVSRANQHLQSGNFYMALKCVDSIESDFMEKTPSSTLKRMLENRIPAIRSYVERKVNKEFGDWLVEIRVVSRNLGQLAIGEASAARQREEELRIKQRQAEEQSRLSLRDCVYALNEEEDDEFGSGHEGSDGGSSGGGLLGFDLTPLYRAYHIHQTLSLGDTFKQYYYNNRDLQLTSDFQIAGFFIVEDRVLRTGGGLISKLEVETLWDTAVTKMCAVLEDQFSRMQTANHLLLIKDYVSLLGVSLRRYGYAVDSLLEVLSKHRDKYHELLLSDCRKQITEALSADKFEQMLMKKEYEYSMNVLSFQLQTSEIVPAFPFIAPFSTTVPDCCRIVRSFIEDSVSFMSHGGQLDFYDVVKKYLDRLLGEVLDEALLKLISTSVHGVSQAMQVAANMAVFERACDFFFRHAAHLSGVPLRMAERGRRHFPLTKSQNTAEDTLSGMLKKKIDGFMTLLENVNWTSDDIPQGGNEYMNEVLIYLETLVSTAQQILPAKVLKRVLRDVLAHISEKIVGTLCGDLVKRLSMAAIKGLDVDIQLLDSFTENLTPLLTDKEAREMKKAFVEIRQMINLLLSSHPENFVNPVIRERSYNALDYRKVATVSEKFRDPSDSIFGTFGTRGSRQNPKNKSLDALIKRLKDVS

binding [1]: binds
B2: SNAP33 fused with pGADT7 (protein, UniProt Q9S7P9 1-300)
chain: MFGLRKSPANLPKHNSVDLKSSKPNPFDSDDESDNKHTLNPSKRTTSEPSLADMTNPFGGERVQKGDSSSSKQSLFSNSKYQYKNNFRDSGGIENQSVQELEGYAVYKAEETTKSVQGCLKVAEDIRSDATRTLVMLHDQGEQITRTHHKAVEIDHDLSRGEKLLGSLGGMFSKTWKPKKTRPINGPVVTRDDSPTRRVNHLEKREKLGLNSAPRGQSRTREPLPESADAYQRVEMEKAKQDDGLSDLSDILGELKNMAVDMGSEIEKQNKGLDHLHDDVDELNFRVQQSNQRGRRLLGK

binding [1]: binds
B6: SEC5a fused with pGADT7 (protein, UniProt Q8S3U9 1-1090)
chain: MSSDSNDLDEDELLQMALKEQAKRDLTYQKPPSSSARKPVANLVQQPRQQKPVAAAAAPPKKSAAAVRKPSMDEDEESEVELLSISSGDDDLEREREIGGSSGGAGRGRGSDVREKGRARKEDDGAWDGGEPDCWKRVNEAELARRVRDMRESRTAPVVQKVEGKAPAPGKKVALTSLQSLPRGMECIDPLKLGIIDNKTLRLITESSGSPSKAEKVDNTLREKLVYFSDHFDPKLFLSRIHQDTTAADLEAGALGLKSDLKGRNLQRKQLVKDNFDCFVSCKTTIDDIESKLKRIEEDPEGSGTTHLFNCMKSVTSRANLAFEPLFERQAQAEKIRSVQGMLQRFRTLFNLPSIIRSSISKGEYDLAVREYKKAKSIALPSHVNILKRVLEEVEKVMLEFKGTLYKSMEDPKIDFTSLENTVRLLLELEPESDPVWHYLNVQNHRIHGLLEKCTYDHEARVEILRNDTHEKAISDAKWQQIQQNGVSYSDTASSNENNAVQVDLQSVEFPSEEIDILKGRYIKRLTAVLVHHIPVFWKTAISIFSGKFAKSSQVTDTSANKAEEKVTEARYSTHSLEEVAGMIRKTISVYEAKVNSTFCDFDESCILRPFMSDAINEVSKACQAFEAKESTPHSAVVALRKIQAEITKIYIQRLCSWMRASTEGISKEETWIPVSILERNRSPYAISYLPLAFRSVIVSGMEQVNLMILSVKSEAAKSEDMFAQIEEIIISVRLAFLNCFLDFAAHLEQIGADLSQSTSRQDNWKNGYSDEHQEEPSANTYGSVIDPHRRLLMVLSNIGYCKDELASELYNKFKYTWLQSRDKNEDSSDLQDLIMSFSGLGEKVLEHYTFAKANLIRTAATNYLLDSGIQWGSAPQVKGIRDAAVELLHTLVAVHAEVFAGAKPLLDKILGVLIEGLIDTFLSVVEENRSSDLRSIDANGFCQLMFELEYFETVLYSYFTSAATESLKSLQGTVLEIAIESISEAVETPGHNRRPTRGSEDTVSDDKQSVSADDLLALTKQCSNELLQQELERTRVNTACFAESAPLESTPPLPKATYSSFRGSMDSPSRNYRGSQSSGSPINARPRRR
